# In all, about 350,000 compounds went through this assay and about 31,000 (8.9%) were called active. The inconclusive results got no clear call from the source; some entries with a clear call stand among them for comparison. Calls follow the shape of the dose curve; as a rule, active = well fitted inhibition curve with a large enough effect; inconclusive = small, poorly fitted or top-dose-only effect; inactive = no such curve, though single readings can be large or run the other way. A potency beside an inconclusive call is a rough fit, not a confirmed value.
# Target: Histone-lysine N-methyltransferase EHMT2 (Homo sapiens) (UniProt Q96KQ7)
# Assay: qHTS Assay for Inhibitors of Histone Lysine Methyltransferase G9a; also: nearly all actives have a fitted effect of over 75% in size
# Conditions: G9a H3K9 monomethylation, AlphaScreen, 2 h; activity, negative = inhibition: at 59 µM (top of the series) unless noted
# Summary of the method: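 Quantitative HTS format: methyltransferase activity on a biotin-tagged H3K9 peptide is measured by AlphaScreen, using a rabbit anti-monomethyl-H3K9 antibody with streptavidin donor and anti-IgG acceptor beads. Final levels are 20 nM enzyme, 500 nM peptide, 20 uM SAM; 2 h RT.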
# % is scaled to controls: 0 for no effect and ±100 for the full control effect; potency is read from the fitted curve at half-maximal effect; tags tell the direction and shape of the fitted curve.
# Sequence of UniProt Q96KQ7 (Q96KQ7 whole entry, looked up): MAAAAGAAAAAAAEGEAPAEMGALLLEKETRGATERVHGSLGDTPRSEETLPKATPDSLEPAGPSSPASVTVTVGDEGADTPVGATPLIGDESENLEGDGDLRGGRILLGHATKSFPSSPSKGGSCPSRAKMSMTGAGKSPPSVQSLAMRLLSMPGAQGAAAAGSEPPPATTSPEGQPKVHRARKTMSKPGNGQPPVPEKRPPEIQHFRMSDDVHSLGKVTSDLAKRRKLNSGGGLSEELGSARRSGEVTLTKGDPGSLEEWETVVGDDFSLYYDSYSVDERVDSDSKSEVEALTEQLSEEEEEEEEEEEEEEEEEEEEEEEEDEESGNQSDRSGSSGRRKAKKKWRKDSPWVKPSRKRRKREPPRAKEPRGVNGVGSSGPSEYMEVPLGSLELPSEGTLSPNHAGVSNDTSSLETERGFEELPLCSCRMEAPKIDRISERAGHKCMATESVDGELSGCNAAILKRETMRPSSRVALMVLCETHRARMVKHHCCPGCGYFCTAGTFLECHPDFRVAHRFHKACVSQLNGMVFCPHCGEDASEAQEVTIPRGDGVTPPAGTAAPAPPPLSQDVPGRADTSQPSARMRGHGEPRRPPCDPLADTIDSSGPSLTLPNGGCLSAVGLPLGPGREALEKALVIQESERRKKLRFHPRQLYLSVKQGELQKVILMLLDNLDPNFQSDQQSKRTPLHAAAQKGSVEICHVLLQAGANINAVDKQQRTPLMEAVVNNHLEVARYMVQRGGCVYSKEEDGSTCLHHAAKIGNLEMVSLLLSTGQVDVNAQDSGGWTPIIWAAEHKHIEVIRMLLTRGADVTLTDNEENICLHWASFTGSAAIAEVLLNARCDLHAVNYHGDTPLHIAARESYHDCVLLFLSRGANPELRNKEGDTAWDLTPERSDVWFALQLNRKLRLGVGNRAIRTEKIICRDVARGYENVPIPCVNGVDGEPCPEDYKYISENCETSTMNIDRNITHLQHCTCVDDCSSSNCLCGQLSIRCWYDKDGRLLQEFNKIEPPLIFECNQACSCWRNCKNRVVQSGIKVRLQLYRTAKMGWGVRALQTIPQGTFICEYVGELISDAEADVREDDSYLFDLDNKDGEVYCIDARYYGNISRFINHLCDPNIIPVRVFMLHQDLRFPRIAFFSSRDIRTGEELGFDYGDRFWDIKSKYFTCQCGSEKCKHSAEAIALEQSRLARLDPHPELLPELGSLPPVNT
SMILES,"activity, negative = inhibition",Potency
COC(CNC(=O)c1ccc(N2CCC3(CC2)OCCO3)c([N+](=O)[O-])c1)OC,inactive: 12.7% [at 102 µM],–
CCCC1=[N+](CC(=O)c2ccc(Br)cc2)CCn2cccc21,–,"inconclusive: 56.2 µM [inhibitor, single point]"
CCc1ccc(C2CC(c3ccccc3Cl)Nc3nc(N)nn32)cc1 (stereo unspecified),–,active: 11.2 µM
O=S(=O)(c1ccccc1)c1nc(-c2ccc(Cl)cc2Cl)oc1N1CCCCCC1,–,"inconclusive: 3.16 µM [inhibitor, partial curve, poor fit]"
CC(C)c1ccc(CN(C)CC(O)c2ccccc2)cc1 (stereo unspecified),–,"inconclusive: 44.7 µM [inhibitor, partial curve]"
CCN1CCN(c2ncnc3sc4c(c23)CCC(C)C4)CC1 (stereo unspecified),–,"inconclusive: 2.82 µM [inhibitor, full curve]"
CCc1ccc(/C=C/C(=O)c2cc(Br)ccc(=O)c2O)cc1,–,"inconclusive: 1.12 µM [inhibitor, partial curve, poor fit]"
CC(NC(=O)c1ccccc1)C(=O)NNC(=O)c1ccccc1Cl (stereo unspecified),inactive: 12.9% [at 12.7 µM],–
Cc1cccc(CNc2ccc(S(=O)(=O)N3CCCCC3)cc2)c1,inactive: -4.15% [at 2.33 µM],–
CCC1CCCCN1CC(=O)N1CCCc2c1c(=O)oc1ccc(OCc3ccccc3)cc21 (stereo unspecified),–,"inconclusive: 22.4 µM [inhibitor, partial curve, poor fit]"
O=[N+]([O-])c1ccc(-c2cnc3ccccc3n2)cc1,–,"inconclusive: 28.2 µM [inhibitor, single point]"
COc1ccc(-c2nc(Cn3c(SCc4ccc(C)cc4)nc4cccnc43)c(C)o2)cc1OC,–,"inconclusive: 8.91 µM [inhibitor, partial curve]"
C[C@@]12C(=O)Nc3ccc(Br)cc3C(=O)N1[C@H]1c3cc(Cl)ccc3OC[C@@H]1[C@@H]2c1ccccc1,inactive: -4.91% [at 2.33 µM],–
CCCCNC(=O)C1CCCN(S(=O)(=O)c2ccc(-n3cnnn3)cc2)C1 (stereo unspecified),–,"inconclusive: 5.62 µM [inhibitor, single point]"
N#Cc1cccc(NC(=O)N2CC[C@@]3(CCCN(C(=O)c4ccncc4)C3)C2)c1,inactive: -6.06% [at 12.7 µM],–
C#CCOc1c(Cl)cc(/C=N/NC(N)=S)cc1OCC,–,"inconclusive: 12.6 µM [inhibitor, partial curve, poor fit]"
COc1cccc(-c2cc(C(=O)Nc3cc(OC)c(OC)c(OC)c3)on2)c1,inactive: -39.9%,–
CC(C)(CNC(=O)CO/N=C1/C=C2CCC3C(C(O)C[C@@]4(C)C3CC[C@]4(O)C(=O)CO)[C@@]2(C)CC1)C(O)C(=O)O (stereo partly specified),–,"inconclusive: 89.1 µM [inhibitor, single point]"
CC1(C)CC(=O)C(C=NCCN2CCN(C3CC(=O)N(c4ccc(Cl)c(Cl)c4)C3=O)CC2)=C(O)C1 (stereo unspecified),–,"inconclusive: 79.4 µM [inhibitor, single point]"
CCOc1ccc(N2C(=O)CC(NC3CCN(C(=O)c4ccc(F)cc4)CC3)C2=O)cc1 (stereo unspecified),–,active: 12.6 µM
CCOC(=O)/C(C(=O)Nc1ccc(Br)cc1)=C1/NC(C)(C)Cc2ccccc21,–,"inconclusive: 79.4 µM [inhibitor, single point]"
CC(C)(C)c1[nH]nc2c1C(c1ccc(OC(=O)c3ccco3)cc1)C(C#N)=C(N)O2 (stereo unspecified),inconclusive: -55% [inhibitor] [at 0.0925 µM],–

SMILES,"activity, negative = inhibition",Potency
CCCCn1c(N)c(N(CCOC)C(=O)Cn2c(=O)cnc3ccccc32)c(=O)[nH]c1=O,–,"inconclusive: 6.31 µM [inhibitor, single point]"
O=C(CCCCCn1c(SCc2ccncc2)nc2ccccc2c1=O)NCc1ccco1,–,"inconclusive: 39.8 µM [inhibitor, single point]"
Cc1[nH]c(=O)[nH]c(=O)c1S(=O)(=O)N1CCN(c2ccccc2)CC1,inactive: -0.0105%,–
Nc1ccc(C(=O)N2CCN(S(=O)(=O)/C=C/c3ccccc3)CC2)cc1[N+](=O)[O-],–,"inconclusive: 56.2 µM [inhibitor, partial curve, poor fit]"
O=C(N/N=C/c1ccc(O)cc1)c1cc[n+](Cc2ccccc2)cc1,–,"inconclusive: 39.8 µM [inhibitor, single point]"
CCN1CCN(c2ccc(NS(=O)(=O)c3c(C)nc4sccn4c3=O)cc2Cl)CC1,–,"inconclusive: 10 µM [inhibitor, partial curve, poor fit]"
O=C1CC(c2ccc(F)cc2)c2cc3c(cc2N1)CCC3 (stereo unspecified),inactive: 9.65%,–
CCN(CC)S(=O)(=O)c1ccc(NC(=S)NC(=O)C(C)C)cc1,inactive: -58.2%,–
O=C(Cc1ccccc1)Nc1ccccc1N1CCN(c2ccccc2)CC1,inconclusive: -53.7% [inhibitor],–
CC(C)COC(=O)c1ccc2c(c1O)C(=O)c1ccccc1C2=O,–,"inconclusive: 8.91 µM [inhibitor, partial curve, poor fit]"
O=C(NCc1ccccc1OC(F)(F)F)C1CCC(=O)N(Cc2ccccn2)C1 (stereo unspecified),inactive: -3.23% [at 102 µM],–
COc1cc(SC)ccc1C(=O)N(CC(=O)Nc1ccccc1Br)Cc1ccco1,–,active: 39.8 µM
Cc1ccccc1NS(=O)(=O)c1ccc(Br)s1,inactive: -43.6%,–
Cc1oc2c(cc(NS(=O)(=O)c3ccc4c5c(cccc35)C(=O)N4)c3ccccc32)c1C(=O)OC(C)C,–,active: 20 µM
CCN(CC)CCNC(C(=O)Nc1cccc(C(C)=O)c1)c1ccccc1 (stereo unspecified),–,"inconclusive: 31.6 µM [inhibitor, partial curve, poor fit]"
COc1ccc2c(c1OC)C(=O)N(c1ncn[nH]1)C2,–,"inconclusive: 22.4 µM [inhibitor, single point]"
Cc1cc(OC(=O)c2ccco2)c(Sc2ccccc2[N+](=O)[O-])c(=O)o1,–,active: 31.6 µM
N#Cc1c(OCC(=O)c2ccccc2)nc2c(c1-c1ccco1)CCc1ccccc1-2,–,"inconclusive: 39.8 µM [inhibitor, single point]"
Cn1c(N2CCCC2)nc2c1c(=O)n(Cc1ccc(Cl)cc1)c(=O)n2C,–,"inconclusive: 50.1 µM [inhibitor, partial curve, poor fit]"
Cn1c(COc2ccc(Cl)cc2)nnc1SCC(=O)NC1CC1,–,"inconclusive: 10 µM [inhibitor, partial curve, poor fit]"
COc1ccccc1C(=O)Nc1ccc(OCC(=O)N2CCCCC2)cc1,inactive: 11.7% [at 2.33 µM],–
CC1=NN(c2ccc(F)cc2)C(=O)C1C(c1cccc(O)c1)c1c(C)[nH]n(-c2ccc(F)cc2)c1=O (stereo unspecified),–,"inconclusive: 39.8 µM [inhibitor, single point]"

SMILES,"activity, negative = inhibition",Potency
COc1ccc(NC(=O)CSc2nnc(-c3cccc(O)c3)o2)cc1,–,"inconclusive: 31.6 µM [inhibitor, single point]"
Cc1cc(C)n2nc(C(=O)Nc3cccc(S(=O)(=O)N4CCOCC4)c3)nc2n1,–,"inconclusive: 50.1 µM [inhibitor, partial curve, poor fit]"
O=C(COC(=O)CCC(=O)Nc1nccs1)NCc1ccco1,–,"inconclusive: 89.1 µM [inhibitor, single point]"
CCOc1ccc(S(=O)(=O)Nc2cccc(OC)c2)cc1,–,"inconclusive: 56.2 µM [inhibitor, partial curve, poor fit]"
COc1ccc(C(=O)Nc2ccc(S(=O)(=O)Nc3nccc(C)n3)cc2)cc1OC,–,"inconclusive: 44.7 µM [inhibitor, partial curve, poor fit]"
CC1CC(C)(C)CC2(C1)NC(=O)N(CC(=O)N1CCN(Cc3ccc(C#N)cc3)CC1)C2=O (stereo unspecified),–,active: 50.1 µM
Cc1ccc(-n2cc(CN(C)Cc3ncc[nH]3)c(-c3cccc(C)c3)n2)cc1,–,"inconclusive: 56.2 µM [inhibitor, single point]"
Cn1cnnc1SCC(=O)NN1C(=O)NC(C)(c2ccccc2)C1=O (stereo unspecified),–,active: 22.4 µM
CC1=NN(C(N)=S)C(=O)C1N=Nc1ccccc1C (stereo unspecified),inactive: 0.554%,–
CCOc1ccc(C2c3cc(OCC)c(OCC)cc3CC(=O)N2c2ccc(C(=O)O)cc2)cc1OCC (stereo unspecified),–,"inconclusive: 20 µM [inhibitor, partial curve, poor fit]"
COc1ccccc1N1CCN(c2ncnc3c2cnn3C)CC1,inactive: -13.9%,–
CCOC(=O)c1cccc(NC(=O)C2CCN(S(=O)(=O)c3ccc4c(c3)oc(=O)n4C)CC2)c1,inactive: -0.047%,–
Oc1ccc(NC(=S)Nc2ccc(F)cc2)cc1,inactive: 6.02%,–
O=C(COC(=O)c1ccccc1F)c1ccc(-n2nncc2-c2ccco2)cc1,–,"inconclusive: 39.8 µM [inhibitor, single point]"
COc1cccc(C(=O)N(Cc2cc3cc(C)ccc3[nH]c2=O)CC2CCCO2)c1 (stereo unspecified),–,"inconclusive: 89.1 µM [inhibitor, single point]"
CCC1=Nc2cc(C(=O)N3CCCCC3)ccc2Sc2ccc(C)cc21,–,"inconclusive: 70.8 µM [inhibitor, partial curve, poor fit]"
COc1ccccc1NS(=O)(=O)c1ccc2oc(SCc3ccc(F)cc3)nc2c1,inactive: 7.91%,–
CC(NC(=O)COC(=O)C1(C)CC1(Cl)Cl)c1ccccc1 (stereo unspecified),inactive: 10.8% [at 12.7 µM],–
O=C(COCC(=O)N1CCOCC1)N1CCOCC1,inactive: 0.553% [at 102 µM],–
Brc1ccc(-c2n(-c3ccccn3)c3ccccc3[n+]2-c2ccccn2)cc1,–,"inconclusive: 56.2 µM [inhibitor, partial curve, poor fit]"
COc1ccc(C(N)=S)cc1,–,"inconclusive: 35.5 µM [inhibitor, single point]"
CCCOc1ccc(N2C(=O)CC(N3CCN(C(=O)c4ccco4)CC3)C2=O)cc1 (stereo unspecified),inconclusive: -62.3% [inhibitor],–

# Source: PubChem BioAssay AID504332 (National Center for Advancing Translational Sciences (NCATS), 2011)
